# The whole screen tested about 370,000 compounds, of which about 150 (0.041%) were called active. The shares of active, inactive and inconclusive entries below differ from those in the screen. Calls come from the whole dose curve; as a rule, active = well fitted inhibition curve with a large enough effect; inconclusive = small, poorly fitted or top-dose-only effect; inactive = flat fitted curve, though single readings scatter. No potency is given beside an inconclusive call; the fits are too rough.
# Biological target: Beta-lactamase (Escherichia coli (strain K12)) (UniProt P00811)
# Experiment: qHTS Inhibitors of AmpC Beta-Lactamase (assay with detergent); note: nearly all actives have a fitted effect of over 25% in size
# Conditions: AmpC hydrolysis of nitrocefin, absorbance 480 nm, 0.01% Triton; series mostly up to 114 µM
# How it was run: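 AmpC (5.3 nM in the dispensed reagent) in 20 mM phosphate pH 7.0 with 0.01% (detergent screen) or 0.0001% Triton X-100 was preincubated with compounds for 15 min at room temperature. Nitrocefin was then added from an 800 uM solution, and hydrolysis was followed at 480 nm.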
# Potency is the fitted concentration of half-maximal effect; tags give direction and shape of the fitted curve.
# Sequence of UniProt P00811 (P00811 whole entry, looked up): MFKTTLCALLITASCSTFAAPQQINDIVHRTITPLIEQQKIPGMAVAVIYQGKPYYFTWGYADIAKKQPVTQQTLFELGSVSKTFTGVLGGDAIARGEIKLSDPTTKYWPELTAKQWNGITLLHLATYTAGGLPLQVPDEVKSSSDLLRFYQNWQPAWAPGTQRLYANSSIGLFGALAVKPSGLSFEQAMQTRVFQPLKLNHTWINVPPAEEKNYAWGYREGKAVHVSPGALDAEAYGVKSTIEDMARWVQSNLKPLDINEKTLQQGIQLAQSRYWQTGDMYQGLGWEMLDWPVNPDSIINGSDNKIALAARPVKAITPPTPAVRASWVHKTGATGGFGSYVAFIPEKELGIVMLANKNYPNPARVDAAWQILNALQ
row,SMILES,Potency
1,CCOC(=O)c1cnc2c(C)cc(C)cc2c1Nc1ccc(S(=O)(=O)Nc2ncccn2)cc1,"inconclusive [inhibitor, full curve, poor fit]"
2,Cc1ccc(NS(=O)(=O)c2ccc3oc(=O)c4ncn(C)c4c3c2)cc1C,inactive
3,CCOc1cc(S(=O)(=O)n2ccnc2)ccc1Br,"inconclusive [inhibitor, single point]"
4,COc1ccc(NC(=O)c2c(F)cccc2F)cc1S(=O)(=O)Nc1ccc(Br)cc1,"inconclusive [inhibitor, partial curve, poor fit]"
5,CS(=O)(=O)c1ncc(Cl)c(C(=O)Nc2ccc3ccccc3c2)n1,inactive
6,Cc1cccc(CN2CCC(N3CC(C)OC(C)C3)CC2)c1 (stereo not drawn),"inconclusive [inhibitor, partial curve, poor fit]"
7,COc1cccc(CC(=O)OC(C)C(=O)Nc2ncc(Cl)cc2Cl)c1 (stereo not drawn),"inconclusive [inhibitor, partial curve, poor fit]"
8,Cc1nn2c(COc3ccc(NC(=O)C(C)C)cc3)nnc2c2ccccc12,"inconclusive [inhibitor, partial curve]"
9,COc1cccc(NC(=O)C2CCC(CNS(=O)(=O)c3csc(C(N)=O)c3)CC2)c1 (stereo not drawn),inactive
10,CCCN(Cc1nnc(-c2cccs2)o1)C(=O)CN1C(=O)NC2(CCC(C)CC2)C1=O (stereo not drawn),inactive
11,CCCN(C(=O)Cn1nc(C)c([N+](=O)[O-])c1C)c1c(N)n(Cc2ccccc2)c(=O)[nH]c1=O,"inconclusive [inhibitor, full curve]"
12,CCn1c(Cc2ccccc2)n[nH]c1=S,"inconclusive [inhibitor, full curve, poor fit]"
13,COc1cc(-c2[nH]ncc2CN2CCc3sccc3C2)cc(OC)c1OC,inactive
14,C=CCNC(=O)c1cccc(OC2CCN(CC(C)(C)C)CC2)c1,"inconclusive [inhibitor, full curve, poor fit]"
15,CCOc1ccccc1C(=O)N1CCC(n2nnc3cc(C)ccc32)CC1,"inconclusive [inhibitor, full curve, poor fit]"
16,COc1cc(NC(=O)COc2c(C)cc(C)cc2[N+](=O)[O-])c(OC)cc1Cl,"inconclusive [inhibitor, partial curve, poor fit]"
17,CC(=O)c1ccc(NS(=O)(=O)c2cc3c(cc2C)N(C)CCO3)cc1,inactive
18,CCCCc1ccc(NS(=O)(=O)c2cc3c4c(c2)CC(=O)N4CCC3)cc1,inactive
19,Cc1ccc(S(=O)(=O)N(C)c2ccc(C(=O)Nc3c(C)n(C)n(-c4ccccc4)c3=O)cc2)cc1,inactive
20,CC1CCCCC12NC(=O)N(CC(=O)c1ccc[nH]1)C2=O (stereo not drawn),"inconclusive [inhibitor, full curve, poor fit]"
21,FC(F)(F)c1cnc(N2CCCN(C(=S)Nc3ccccc3)CC2)c(Cl)c1,inactive
22,O=C(CCCOc1ccccc1)Nc1ccccc1C(F)(F)F,"inconclusive [inhibitor, single point]"

row,SMILES,Potency
1,COc1ccc(S(=O)(=O)Nc2ccc3c(c2)n(C)c(=O)n3C)cc1,"inconclusive [inhibitor, full curve, poor fit]"
2,Cc1ccc(S(=O)(=O)NCCCCC(NC(=O)OC(C)(C)C)C(=O)O)cc1 (stereo not drawn) (tested in a mixture with another compound),"inconclusive [inhibitor, partial curve]"
3,CCCCCCCCCSc1n[nH]c(N)n1,"inconclusive [inhibitor, single point]"
4,N/C(=N\O)c1ccc(NC(=O)c2ccc(Br)o2)cc1,inactive
5,O=C(Nc1ccc(F)c(F)c1)c1cnc(-c2ccccc2)nc1-c1ccccc1,inactive
6,CC1C(=O)CCN(C(C)C)C1C (stereo not drawn),"inconclusive [inhibitor, single point]"
7,COc1ccc(-c2noc(-c3cc(C)cc(C)c3)n2)cc1OC,"inconclusive [inhibitor, full curve, poor fit]"
8,COc1cc(OC)cc(C(=O)NCc2nc(-c3ccccc3)no2)c1,"inconclusive [inhibitor, full curve]"
9,CN1C(=O)C(=Cc2ccc(N3CCCCCC3)cc2)C(=O)N(C)C1=O,"inconclusive [inhibitor, full curve, poor fit]"
10,COc1ccc(S(=O)(=O)Nc2c(C(=O)O)[nH]c3ccccc23)cc1,"inconclusive [inhibitor, full curve]"
11,CCN1C(=O)/C(=C\c2ccncc2)SC1=Nc1ccc(C)c(C)c1,inactive
12,CCn1c(=O)cc(OCC(=O)NCc2cccs2)c2ccccc21,"inconclusive [inhibitor, single point]"
13,CC(C)(C)OC(=O)NCc1ccc(NC(=O)c2nc[nH]c2C(=O)N[C@@H](Cc2ccccc2)C(=O)OCc2ccccc2)cc1,inactive
14,COc1ccc(Cc2nnc(SCc3ccc([N+](=O)[O-])cc3)o2)cc1,"inconclusive [inhibitor, single point]"
15,Cc1cccc(NCc2cccc3ccccc23)n1,inactive
16,COc1ccccc1N1CCN(C(=O)C2CCN(S(=O)(=O)c3cn(C)cn3)CC2)CC1,inactive
17,COc1ccc2c(c1)-c1c(ssc1=S)C(C)(C)N2,"inconclusive [inhibitor, single point]"
18,COc1ccc(-c2cc(=O)c3c(O)cc(O[C@@H]4O[C@H](CO[C@@H]5O[C@@H](C)[C@H](O)[C@@H](O)[C@H]5O)[C@@H](O)[C@H](O)[C@H]4O)cc3o2)cc1O,"inconclusive [inhibitor, single point]"
19,Cc1cc(C)c(S(=O)(=O)Cc2ccccc2)c(OC(C)C)n1,inactive
20,CC(Oc1ccc(Cl)cc1Cl)c1nc(-c2ccccn2)no1 (stereo not drawn),"inconclusive [inhibitor, full curve, poor fit]"
21,COc1ccc(N2C(=O)C3CC(C)=C(C)CC3C2=O)c(OC)c1 (stereo not drawn),"inconclusive [inhibitor, single point]"
